Measured values from the supplement of paper PMC4967469.
By IC50 is meant the dose at which the fit gives 50% viability; fits outside the tested doses are given as limits. AUC is the area under the same curve over the 256-fold range up to the top dose, as a fraction; the more sensitive the line, the further below 1. For some assays here: Where the top dose is marked as inferred, it comes from the curve model; the source does not state it.

Key:
Test in all cases: Viability of human cancer cell lines after 72 h of drug (GDSC screen)
JW-7-52-1 = compound: CCC(=O)N1CCN(c2ccc(-n3c(=O)ccc4cnc5ccc(-c6cnc7ccccc7c6)cc5c43)cc2C(F)(F)F)CC1 [JW-7-52-1]; conditions: top dose 1.2 µM; top dose inferred
Procedure: (§1)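 Human cancer cell lines in 384-well plates, medium with 10% serum, drug for 72 h over a 256-fold dose range (nine 2-fold or five 4-fold steps up to the top dose). Adherent lines were fixed and stained with the nucleic acid dye Syto60, suspension lines read with resazurin; signal relative to control wells, capped at 0 and 100%. One two-parameter sigmoid per drug and line, fitted in a mixed model over all curves with the slope shared within a line.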

Z-LLNle-CHO = compound: CCCC[C@@H](C=O)NC(=O)[C@H](CC(C)C)NC(=O)[C@H](CC(C)C)NC(=O)OCc1ccccc1 [Z-LLNle-CHO]; conditions: top dose 2.56 µM; top dose inferred
Procedure: as §1

ZG-10 = compound: CN(C)C/C=C/C(=O)Nc1ccc(C(=O)Nc2cccc(Nc3nccc(-c4cccnc4)n3)c2)cc1 [ZG-10]; conditions: top dose 10 µM; top dose inferred
Procedure: as §1

Tubastatin A = compound: CN1CCc2c(c3ccccc3n2Cc2ccc(C(=O)NO)cc2)C1 [Tubastatin A]; conditions: top dose 20 µM
Procedure: as §1

Rapamycin = compound: CO[C@H]1C[C@@H]2CC[C@@H](C)[C@@](O)(O2)C(=O)C(=O)N2CCCC[C@H]2C(=O)O[C@H]([C@H](C)C[C@@H]2CC[C@@H](O)[C@H](OC)C2)CC(=O)[C@H](C)/C=C(\C)[C@@H](O)[C@@H](OC)C(=O)[C@H](C)C[C@H](C)/C=C/C=C/C=C/1C [Rapamycin]; conditions: top dose 0.1 µM; top dose inferred
Procedure: as §1

XL-880 = compound: COc1cc2c(Oc3ccc(NC(=O)C4(C(=O)Nc5ccc(F)cc5)CC4)cc3F)ccnc2cc1OCCCN1CCOCC1 [XL-880]; conditions: top dose 5.12 µM; top dose inferred
Procedure: as §1

Temozolomide = compound: Cn1nnc2c(C(N)=O)ncn2c1=O [Temozolomide]; conditions: top dose 30 µM
Procedure: as §1

CI-1040 = compound: O=C(NOCC1CC1)c1ccc(F)c(F)c1Nc1ccc(I)cc1Cl [CI-1040]; conditions: top dose 10 µM; top dose inferred
Procedure: as §1

IPA-3 = compound: Oc1ccc2ccccc2c1SSc1c(O)ccc2ccccc12 [IPA-3]; conditions: top dose 32 µM; top dose inferred
Procedure: as §1

| Cell Line | AUC (JW-7-52-1) | IC50 (JW-7-52-1) | AUC (Z-LLNle-CHO) | IC50 (Z-LLNle-CHO) | AUC (ZG-10) | IC50 (ZG-10) | AUC (Tubastatin A) | IC50 (Tubastatin A) | AUC (Rapamycin) | IC50 (Rapamycin) | AUC (XL-880) | IC50 (XL-880) | AUC (Temozolomide) | IC50 (Temozolomide) | AUC (CI-1040) | IC50 (CI-1040) | AUC (IPA-3) | IC50 (IPA-3) |
| --- | --- | --- | --- | --- | --- | --- | --- | --- | --- | --- | --- | --- | --- | --- | --- | --- | --- | --- |
| KCL-22 (chronic myeloid leukaemia, suspension) | 0.407 | 43.5 nM | 0.739 | 671 nM | 0.648 | 1490 nM | 0.869 | 13600 nM | 0.782 | 34.9 nM | 0.515 | 349 nM | 0.991 | > 30000 nM | 0.881 | 7620 nM | 0.75 | 9000 nM |
| ALL-SIL (T-cell leukaemia, suspension) | 0.526 | 87.5 nM | 0.783 | 926 nM | 0.516 | 685 nM | 0.796 | 7900 nM | 0.866 | 69.1 nM | 0.28 | 85 nM | 0.957 | > 30000 nM | 0.929 | > 10000 nM | 0.578 | 3170 nM |
| SK-PN-DW (Ewing sarcoma, adherent) | 0.456 | 56.6 nM | 0.801 | 1310 nM | 0.743 | 3200 nM | 0.817 | 11800 nM | 0.609 | 12.6 nM | 0.416 | 187 nM | 0.968 | > 30000 nM | 0.906 | > 10000 nM | 0.742 | 10200 nM |
| NAMALWA (Burkitt lymphoma, suspension) | 0.352 | 31.3 nM | 0.723 | 607 nM | 0.666 | 1660 nM | 0.544 | 1620 nM | 0.75 | 28.3 nM | 0.37 | 149 nM | 0.988 | > 30000 nM | 0.872 | 7040 nM | 0.747 | 8880 nM |
| KM12 (large intestine, adherent) | 0.514 | 82.3 nM | 0.862 | 2500 nM | 0.939 | > 10000 nM | 0.935 | > 20000 nM | 0.963 | > 100 nM |  |  | 0.984 | > 30000 nM | 0.738 | 3190 nM | 0.971 | > 32000 nM |
| DG-75 (Burkitt lymphoma, suspension) | 0.671 | 226 nM | 0.875 | > 2560 nM | 0.534 | 776 nM | 0.984 | > 20000 nM | 0.934 | > 100 nM | 0.77 | 1960 nM | 0.977 | > 30000 nM | 0.934 | > 10000 nM | 0.969 | > 32000 nM |
| SJSA-1 (bone, adherent) | 0.444 | 51.6 nM | 0.851 | 2350 nM | 0.837 | 7920 nM | 0.957 | > 20000 nM | 0.76 | 39.4 nM | 0.662 | 962 nM | 0.982 | > 30000 nM | 0.855 | 9690 nM | 0.827 | 23000 nM |
| SF268 (glioma, adherent) | 0.546 | 101 nM | 0.783 | 1170 nM | 0.712 | 2610 nM | 0.915 | > 20000 nM | 0.899 | > 100 nM | 0.636 | 785 nM | 0.96 | > 30000 nM | 0.905 | > 10000 nM | 0.866 | > 32000 nM |
| ES5 (Ewing sarcoma, adherent) | 0.909 | > 1200 nM | 0.968 | > 2560 nM | 0.643 | 1660 nM | 0.695 | 4840 nM | 0.983 | > 100 nM | 0.37 | 132 nM | 0.977 | > 30000 nM | 0.938 | > 10000 nM | 0.848 | 29300 nM |
| NCI-H2141 (small cell lung carcinoma, suspension) | 0.823 | 680 nM | 0.85 | 1850 nM | 0.678 | 1930 nM | 0.985 | > 20000 nM | 0.969 | > 100 nM | 0.729 | 1410 nM | 0.99 | > 30000 nM | 0.979 | > 10000 nM | 0.988 | > 32000 nM |
| COLO-800 (melanoma, adherent) | 0.988 | > 1200 nM | 0.987 | > 2560 nM | 0.412 | 361 nM | 0.963 | > 20000 nM | 0.871 | 89.4 nM | 0.802 | 2440 nM | 0.981 | > 30000 nM | 0.957 | > 10000 nM | 0.968 | > 32000 nM |
| NCI-H1155 (large cell lung carcinoma, suspension) | 0.817 | 525 nM | 0.96 | > 2560 nM | 0.87 | 6600 nM | 0.985 | > 20000 nM | 0.964 | > 100 nM | 0.538 | 398 nM | 0.983 | > 30000 nM | 0.933 | > 10000 nM | 0.979 | > 32000 nM |
| KURAMOCHI (ovary, adherent) | 0.37 | 31 nM | 0.775 | 1180 nM | 0.748 | 3660 nM | 0.913 | > 20000 nM | 0.766 | 42.4 nM | 0.701 | 1300 nM | 0.982 | > 30000 nM | 0.931 | > 10000 nM | 0.928 | > 32000 nM |
| LU-65 (large cell lung carcinoma, suspension) | 0.839 | 1040 nM | 0.938 | > 2560 nM | 0.982 | > 10000 nM | 0.939 | > 20000 nM | 0.963 | > 100 nM | 0.624 | 749 nM | 0.981 | > 30000 nM | 0.979 | > 10000 nM | 0.973 | > 32000 nM |
| ES1 (Ewing sarcoma, adherent) | 0.388 | 37.1 nM | 0.902 | > 2560 nM | 0.579 | 1030 nM | 0.804 | 9790 nM | 0.92 | > 100 nM | 0.398 | 169 nM | 0.978 | > 30000 nM | 0.812 | 5230 nM | 0.734 | 9200 nM |
| K5 (thyroid, adherent) | 0.465 | 60.3 nM | 0.894 | > 2560 nM | 0.797 | 4500 nM | 0.969 | > 20000 nM | 0.769 | 36.1 nM | 0.695 | 1100 nM | 0.932 | > 30000 nM | 0.426 | 396 nM | 0.988 | > 32000 nM |
| NCI-H716 (large intestine, suspension) | 0.969 | > 1200 nM | 0.961 | > 2560 nM | 0.751 | 4060 nM | 0.942 | > 20000 nM | 0.924 | > 100 nM | 0.463 | 247 nM | 0.971 | > 30000 nM | 0.365 | 241 nM | 0.976 | > 32000 nM |
| MMAC-SF (melanoma, adherent) | 0.318 | 22.7 nM | 0.696 | 584 nM | 0.73 | 2920 nM | 0.93 | > 20000 nM | 0.901 | > 100 nM | 0.986 | > 5120 nM | 0.98 | > 30000 nM | 0.296 | 162 nM | 0.978 | > 32000 nM |
| A498 (kidney, adherent) | 0.979 | > 1200 nM | 0.903 | > 2560 nM | 0.758 | 5190 nM | 0.976 | > 20000 nM | 0.979 | > 100 nM | 0.972 | > 5120 nM | 0.975 | > 30000 nM | 0.878 | > 10000 nM | 0.973 | > 32000 nM |
| IST-SL2 (small cell lung carcinoma, suspension) | 0.49 | 70.5 nM | 0.77 | 965 nM | 0.907 | > 10000 nM | 0.988 | > 20000 nM | 0.695 | 21.9 nM |  |  | 0.979 | > 30000 nM | 0.904 | > 10000 nM | 0.726 | 8720 nM |
| A704 (kidney, adherent) | 0.481 | 66.7 nM | 0.721 | 662 nM | 0.785 | 4150 nM |  |  | 0.917 | > 100 nM | 0.608 | 625 nM | 0.988 | > 30000 nM | 0.927 | > 10000 nM | 0.784 | 13200 nM |
| NB5 (neuroblastoma, adherent) | 0.542 | 97.7 nM | 0.862 | 2230 nM | 0.793 | 4640 nM | 0.987 | > 20000 nM | 0.917 | > 100 nM |  |  | 0.985 | > 30000 nM | 0.778 | 4100 nM | 0.837 | 21800 nM |
| BT-474 (breast, adherent) | 0.71 | 319 nM | 0.979 | > 2560 nM | 0.721 | 2880 nM | 0.934 | > 20000 nM | 0.918 | > 100 nM |  |  | 0.984 | > 30000 nM | 0.986 | > 10000 nM | 0.712 | 8600 nM |
| GAK (melanoma, adherent) | 0.4 | 40.4 nM | 0.786 | 1050 nM | 0.789 | 4200 nM |  |  | 0.889 | > 100 nM | 0.764 | 1780 nM | 0.985 | > 30000 nM | 0.762 | 3400 nM | 0.97 | > 32000 nM |
| LB647-SCLC (small cell lung carcinoma, semi-adherent) | 0.578 | 126 nM | 0.73 | 792 nM | 0.727 | 3020 nM | 0.966 | > 20000 nM | 0.839 | 80.2 nM |  |  | 0.981 | > 30000 nM | 0.974 | > 10000 nM | 0.714 | 8740 nM |
| TK10 (kidney, adherent) | 0.429 | 46.1 nM | 0.737 | 890 nM | 0.73 | 3300 nM | 0.975 | > 20000 nM | 0.847 | 98.8 nM |  |  | 0.98 | > 30000 nM | 0.802 | 6160 nM | 0.861 | > 32000 nM |
